Test results: paper PMC4336329 (PLoS ONE, 2015)
In all, about 310,000 compounds went through this assay and about 2,200 (0.71%) showed an effect of 50% or more. The effect is printed as a negative number. This is one part of the list.

The molecules below were run against human ether-à-go-go-related gene (hERG) potassium channel (human, UniProt Q12809) (assay: primary screen, population patch clamp on CHO cells stably expressing hERG).
human ether-à-go-go-related gene (hERG) potassium channel, sequence (Q12809 whole entry, looked up): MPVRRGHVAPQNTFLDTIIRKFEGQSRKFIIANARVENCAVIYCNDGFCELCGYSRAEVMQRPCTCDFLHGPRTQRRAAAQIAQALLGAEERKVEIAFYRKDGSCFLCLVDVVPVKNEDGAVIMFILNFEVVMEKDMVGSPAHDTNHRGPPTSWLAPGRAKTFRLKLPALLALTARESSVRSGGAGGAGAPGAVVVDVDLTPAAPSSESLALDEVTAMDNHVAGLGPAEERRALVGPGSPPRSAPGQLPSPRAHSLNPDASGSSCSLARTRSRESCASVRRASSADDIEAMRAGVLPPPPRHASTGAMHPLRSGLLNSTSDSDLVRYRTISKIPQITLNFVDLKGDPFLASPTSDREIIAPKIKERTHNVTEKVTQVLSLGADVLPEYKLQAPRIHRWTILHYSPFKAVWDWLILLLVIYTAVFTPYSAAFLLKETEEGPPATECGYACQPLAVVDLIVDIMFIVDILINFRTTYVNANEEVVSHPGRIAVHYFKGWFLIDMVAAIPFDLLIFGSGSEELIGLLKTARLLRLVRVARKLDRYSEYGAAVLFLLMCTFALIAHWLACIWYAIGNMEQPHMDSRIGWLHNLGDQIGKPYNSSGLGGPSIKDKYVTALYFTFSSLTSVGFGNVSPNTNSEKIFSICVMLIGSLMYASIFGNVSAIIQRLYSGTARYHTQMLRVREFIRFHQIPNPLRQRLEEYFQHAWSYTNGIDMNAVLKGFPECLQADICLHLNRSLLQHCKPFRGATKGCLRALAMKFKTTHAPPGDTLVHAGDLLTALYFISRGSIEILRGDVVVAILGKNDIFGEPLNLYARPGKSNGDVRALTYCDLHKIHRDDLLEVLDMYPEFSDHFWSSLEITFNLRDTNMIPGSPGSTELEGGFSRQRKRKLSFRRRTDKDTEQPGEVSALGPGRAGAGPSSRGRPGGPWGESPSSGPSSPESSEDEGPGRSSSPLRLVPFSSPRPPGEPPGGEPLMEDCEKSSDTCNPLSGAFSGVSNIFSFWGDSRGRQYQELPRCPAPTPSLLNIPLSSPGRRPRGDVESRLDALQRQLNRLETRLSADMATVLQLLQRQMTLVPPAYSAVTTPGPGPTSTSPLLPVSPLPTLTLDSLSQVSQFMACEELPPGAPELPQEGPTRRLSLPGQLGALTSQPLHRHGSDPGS

SMILES | hERG current change (%, negative = inhibition) at 1uM [%]
CCC1Oc2ccc(C)cc2N(CC(=O)N2CCN(c3ccc(F)cc3)CC2)C1=O (centres unmarked) | -8.16
CCCCNC(=O)c1onc(CSc2ccccc2)c1C(=O)O | 7.32
COC(=O)CN(c1ccccc1[N+](=O)[O-])S(=O)(=O)c1ccccc1 | 14.1
Cc1c(Cl)cccc1NC(=O)CNC(=O)CCS(=O)(=O)c1ccc(F)cc1 | 2.28
O=C(CSc1ncnc2c1nnn2Cc1ccc(F)cc1)NC1CCCC1 | 10.3
CCCN(CCC)C(=O)Cn1c(=O)n(CCCC(=O)NCc2ccco2)c(=O)c2sccc21 | 2.97
CNC(=O)/C(C#N)=C/c1ccc(OCCOc2ccccc2)cc1 | 18.9
COc1ccc(OC)c(CN2CCN(Cc3cc(OC)c(OC)c(OC)c3)CC2)c1 | 10.9
CCOC(=O)c1cc(-c2ccccc2)sc1N | 7.31
COCc1cc(=O)[nH]c(Cc2c(Cl)cccc2Cl)n1 | 10.5
Cl.O=C(O)C1NCCc2ccccc21 (centres unmarked) | 0.712
CSc1cccc(NCc2ccc([N+](=O)[O-])cc2)c1 | 7.88
CCOC(=O)Nc1ccc(NC(=O)c2ccccc2F)cc1 | 13.6
Cc1c(C)c2ccc(OC3CCCCC3=O)cc2oc1=O (centres unmarked) | 12.3
Cn1c(CCNC(=O)c2ccc(F)cc2)nc2ccccc21 | -3.41
COc1ccc(C2CC(c3cccs3)=NN2C(=O)CSc2nc(=O)n3cc(C)ccc3n2)cc1 (centres unmarked) | -30.5
CCOC(=O)C(=CNNc1cccc(Cl)c1)C(=O)OCC | 7.49
Cc1ccc(-c2noc(N=O)c2NO)cc1 | 7.87
COc1cc(OC)cc(C(=O)Nc2cc(-c3cn4cccnc4n3)ccc2C)c1 | -3.96

SMILES | hERG current change (%, negative = inhibition) at 1uM [%]
CCc1ccc(OCC(=O)O/N=C(\N)c2ccncc2)cc1 | 15.7
Cc1nc2scc(C)n2c(=O)c1S(=O)(=O)NC(C)c1ccccc1 (centres unmarked) | 11.6
COc1ccccc1C(=O)OCCN=C1NS(=O)(=O)c2ccccc21 | 14.1
COc1ccc(C(CNC(=O)c2ccc(S(=O)(=O)N3CCCC3)cc2)N2CCOCC2)cc1 (centres unmarked) | 7.32
O=C(NCCc1ccc(C(F)(F)F)cc1)c1ccc2c(c1)OCO2 | 7.79
CCCCOc1ccc(CSc2ncn[nH]2)cc1 | 4.88
COc1ccc(NC(=O)c2cc(-c3cc(C)c(C)cc3O)n[nH]2)c(OC)c1 | 14.2
CCSc1oc(-c2ccco2)nc1S(=O)(=O)c1ccc(F)cc1 | -0.87
CC(NC(=O)c1ccc(Cn2cc([N+](=O)[O-])cn2)o1)c1ccccc1 (centres unmarked) | -0.958
OC1CCCN(Cc2ccc3ccc4cccc5ccc2c3c45)C1 (centres unmarked) | 1.31
CCN(CCCNS(=O)(=O)c1cc(-c2cc(C)no2)ccc1C)Cc1ccccc1 | -29.5
CN(CC(=O)Nc1ccc(F)cc1)C(=O)COC(=O)C1=COCCO1 | -4.57
O=C(O)c1cc2ccccc2c(N=Nc2cccnc2)c1O | 12.6
C1COCCO1.N#C/C(=C(/O)C(Cl)c1ccccc1)c1nc2ccccc2s1 (centres unmarked) | 3.94
COc1ccc(/C=N/Nc2snc(SC)c2C#N)cc1OC | 7.72
Cc1ccc(-n2c(SCC(=O)Nc3ccc(N4CCOCC4)cc3)nc3ccccc3c2=O)cc1 | 11.2
CC1(C)Cc2nc3oc4c(N5CCOCC5)ncnc4c3cc2CO1 | 4.79
CCOC(=O)c1ccc(NC(=O)CSc2nc(N3CCOCC3)nc(N3CCOCC3)n2)cc1 | 7.53
O=C(NCc1ccco1)/C(=C/c1ccccc1F)NC(=O)c1ccccc1 | 18.7

SMILES | hERG current change (%, negative = inhibition) at 1uM [%]
CC1CCCC(C)N1CC(O)COC1CCC(C(C)(C)C)CC1.Cl (centres unmarked) | 4.92
O=C(CCCOc1ccc(Cl)cc1)NCCc1ccccc1 | 12.7
COc1ccc2c(c1)CC/C(=C\C=C\c1ccccc1OC)C2=O | 10.2
CNC(=O)c1ccc(CNC(=O)OCc2ccccc2)cc1 | 15.9
c1ccc(-c2csc3ncnc(NCC4COc5ccccc5O4)c23)cc1 (centres unmarked) | 11.7
CCCCn1c(N)c(N(CC(C)C)C(=O)C2CC(=O)N(c3ccc(CC)cc3)C2)c(=O)[nH]c1=O (centres unmarked) | 23.8
Cn1c(=O)c(C#N)c(-c2ccc(F)cc2)c2cc(C(=O)c3cc(Cl)cc(Cl)c3O)cnc21 | 16
COCCCn1c(=O)/c(=C\c2ccccc2OC(C)C)s/c1=C(/C#N)C(=O)Nc1ccc(C(=O)O)cc1 | 9.85
CC(=O)c1cccc(S(=O)(=O)NC2CC2)c1 | 1.01
CCN(CC)S(=O)(=O)c1ccc(NC(=O)COC(=O)c2ccc(Br)o2)cc1 | 2.44
CNC(=O)c1ncnnc1N(C)C(=O)NCc1ccccc1 | -6.97
Cc1ccc2nc(NC(=O)Cn3cc4c(n3)CCCCC4)sc2c1 | -2.4
Cc1cccc(OCC(=O)Nc2ccc(CN3CCOCC3)cc2)c1C | 10
CCOC(=O)/C=c1\s/c(=C\c2ccc3c(c2)OCCO3)c(=O)n1CC(=O)NCC1CCCO1 (centres unmarked) | 13.6
O=C(Nc1ccc(S(=O)(=O)NCc2ccco2)cc1)C1CCCCC1 | 8.13
CC1CCN(CC(=O)N2CCN(c3ccccc3)CC2)CC1 | 12.5
CC(C)(C)n1ncc2c(=O)n(CC(=O)c3ccc(Cl)cc3)cnc21 | 12.1
COc1ccc(F)cc1CN1CCN(C(=O)CCC(=O)Nc2nnc(CC(C)C)s2)CC1 | 16.8
